Each structure is given as a SMILES string. The list shows a part of the results.

One assay concerns HSkMC. In words: cytotoxicity call (relative viability < 0.9). The conditions noted are these: 10 µM.
In a further assay the test system is HepG2. In words: cytotoxicity call (relative viability < 0.9). The conditions noted are these: 10 µM.
In the next assay the test system is S. aureus RN4220. In words: growth inhibition call (relative growth <= 0.2). The note with it: 50 µM.

As to `Cn1c(=O)[nH]c2ccccc21`, the cytotoxicity call in the assay with HSkMC and with HepG2 was “inactive” each time. The growth inhibition call with S. aureus RN4220 was “inactive”.
For the compound `C[C@H]1CN([C@@H](C)CO)C(=O)c2cc(NS(=O)(=O)c3cn(C)cn3)ccc2O[C@H]1CN(C)C(=O)NC1CCCCC1`, the cytotoxicity call with HSkMC and in the assay on HepG2 was “inactive” each time. In the assay on S. aureus RN4220, the growth inhibition call is “inactive”.
As to `COc1ccc2c3c(n(c2c1)C)[C@@H](CO)N(C[C@]13CCN(CC1)CC1CCOCC1)C(=O)Cc1ccccn1`, the cytotoxicity call with HSkMC and with HepG2 was “inactive” in each case. The growth inhibition call in the assay on S. aureus RN4220 was “inactive”.
Turning to `COc1ccc(S(=O)(=O)N(C)C[C@H]2Oc3ncc(-c4ccncc4)cc3C(=O)N([C@@H](C)CO)C[C@H]2C)cc1`, the cytotoxicity call with HSkMC and in the assay with HepG2 was “inactive” in each case. For the same compound, in the assay on S. aureus RN4220, the growth inhibition call is “inactive”.
Regarding `C[C@H]1CCCCO[C@@H](CN(C)Cc2ccc(C(F)(F)F)cc2)[C@@H](C)CN([C@@H](C)CO)C(=O)c2cc(NS(=O)(=O)c3ccccc3)ccc2O1`, the cytotoxicity call in the assay on HSkMC and with HepG2 was “inactive” each time. Moreover, the growth inhibition call with S. aureus RN4220 is “inactive”.
As for `O=C(CC1CC1)NCc1cnc2n1CCNCC2`, the cytotoxicity call with HSkMC and in the assay on HepG2 was “inactive” in each case. Further, the growth inhibition call with S. aureus RN4220 is “inactive”.
For the compound `C[C@@H]1CCCCO[C@@H](CN(C)Cc2ccc(C(F)(F)F)cc2)[C@@H](C)CN([C@H](C)CO)C(=O)c2cc(NC(=O)Nc3ccc(F)cc3)ccc2O1`, the cytotoxicity call with HSkMC and in the assay with HepG2 was “inactive” each time. For the same compound, the growth inhibition call with S. aureus RN4220 is “inactive”.
`CC(C)NC(=O)Nc1ccc2c(c1)C(=O)N([C@H](C)CO)C[C@H](C)[C@@H](CN(C)C(=O)Nc1cccc3ccccc13)OCCCC[C@@H](C)O2`: the cytotoxicity call in the assay with HSkMC and in the assay with HepG2 was “inactive” in each case. Besides, the growth inhibition call in the assay with S. aureus RN4220 was “inactive”.
With `C[C@H](CO)N1C[C@H](C)[C@H](CN(C)C(=O)Nc2ccccc2)Oc2c(NC(=O)C3CCOCC3)cccc2C1=O`, the cytotoxicity call in the assay on HSkMC and with HepG2 was “inactive” each time. Besides, the growth inhibition call in the assay with S. aureus RN4220 is “inactive”.
On to `COc1cccc(NC(=O)N2C[C@H](O)COC[C@@H]3O[C@@H](CC(=O)NC4Cc5ccccc5C4)CC[C@H]32)c1`, for which the cytotoxicity call with HSkMC and in the assay on HepG2 was “inactive” each time. The growth inhibition call in the assay on S. aureus RN4220 is “inactive”.
In the case of `C[C@H](CO)N1C[C@H](C)[C@H](CN(C)CC2CCCCC2)Oc2ccc(NC(=O)CCN3CCOCC3)cc2C1=O`, the cytotoxicity call in the assay with HSkMC and in the assay with HepG2 was “inactive” each time. Also, the growth inhibition call in the assay with S. aureus RN4220 is “inactive”.
Regarding `Cc1noc(C)c1NC(=O)N(C)C[C@@H]1Oc2ccc(NS(=O)(=O)c3ccccc3)cc2C(=O)N([C@@H](C)CO)C[C@@H]1C`, the cytotoxicity call in the assay with HSkMC and in the assay on HepG2 was “inactive” in each case. The growth inhibition call with S. aureus RN4220 was “inactive”.
For the compound `C[C@H](CO)N1C[C@H](C)[C@H](CN(C)C(=O)Nc2ccc(F)cc2)Oc2ccc(NC(=O)Nc3ccc(C(F)(F)F)cc3)cc2CC1=O`, the cytotoxicity call with HSkMC and in the assay on HepG2 was “inactive” throughout. The growth inhibition call with S. aureus RN4220 is “inactive”.
Consider `CN1C(=O)c2cc(NS(=O)(=O)c3ccc(F)cc3)ccc2OC[C@@H]2O[C@H](CC(=O)NCC(F)(F)F)CC[C@@H]21`, for which the cytotoxicity call in the assay with HSkMC and in the assay with HepG2 was “inactive” in each case. Besides, the growth inhibition call with S. aureus RN4220 was “inactive”.
With `C[C@@H]1CCCCO[C@@H](CN(C)S(=O)(=O)c2cn(C)cn2)[C@H](C)CN([C@H](C)CO)C(=O)c2cc(NS(=O)(=O)c3ccc(F)cc3)ccc2O1`, the cytotoxicity call in the assay with HSkMC and with HepG2 was “inactive” throughout. In the assay with S. aureus RN4220, the growth inhibition call was “inactive”.
For `C[C@@H]1CN([C@@H](C)CO)C(=O)Cc2cc(NC(=O)Nc3ccc(C(F)(F)F)cc3)ccc2O[C@H]1CN(C)CC1CCCCC1`, the cytotoxicity call with HSkMC and in the assay with HepG2 was “active” throughout. Moreover, in the assay on S. aureus RN4220, the growth inhibition call was “inactive”.
With `CC(C)NC(=O)N(C)C[C@H]1Oc2ccc(NS(=O)(=O)c3ccc(F)cc3)cc2CC(=O)N([C@@H](C)CO)C[C@@H]1C`, the cytotoxicity call with HSkMC and in the assay with HepG2 was “inactive” in each case. For the same compound, in the assay with S. aureus RN4220, the growth inhibition call is “inactive”.
With `C(=C\c1ccccc1)/CSc1ncnc2c1oc1ccccc12`, the cytotoxicity call in the assay on HSkMC and in the assay on HepG2 was “inactive” each time. Further, in the assay on S. aureus RN4220, the growth inhibition call was “inactive”.
As to `CN1C[C@@H](CN)CC1=O`, the cytotoxicity call in the assay with HSkMC and with HepG2 was “inactive” in each case. Further, the growth inhibition call in the assay on S. aureus RN4220 was “inactive”.
For the compound `CC(C)NC(=O)N(C)C[C@H]1Oc2ccc(NS(=O)(=O)c3ccc(F)cc3)cc2CC(=O)N([C@H](C)CO)C[C@H]1C`, the cytotoxicity call in the assay on HSkMC and in the assay with HepG2 was “inactive” each time. In addition, in the assay on S. aureus RN4220, the growth inhibition call is “inactive”.
With `C[C@@H]1CCCCO[C@@H](CN(C)C(=O)CCCN(C)C)[C@H](C)CN([C@H](C)CO)C(=O)c2cc(N(C)C)ccc2O1`, the cytotoxicity call in the assay with HSkMC and with HepG2 was “inactive” throughout. Further, in the assay on S. aureus RN4220, the growth inhibition call is “inactive”.
As to `COCCN1CCCn2c(nc(CNS(C)(=O)=O)cc2=O)C1`, the cytotoxicity call in the assay with HSkMC and with HepG2 was “inactive” each time. Moreover, the growth inhibition call with S. aureus RN4220 is “inactive”.
On to `CN(C)CCCNC(=O)C[C@H]1CC[C@H](NS(=O)(=O)c2ccccc2)[C@H](CO)O1`, for which the cytotoxicity call in the assay on HSkMC and in the assay with HepG2 was “inactive” throughout. Further, in the assay on S. aureus RN4220, the growth inhibition call is “inactive”.
On to `N=C1NC(=O)CS1`, for which the cytotoxicity call in the assay on HSkMC and in the assay on HepG2 was “inactive” each time. Besides, in the assay on S. aureus RN4220, the growth inhibition call is “inactive”.
For `C[C@@H]1CN([C@H](C)CO)C(=O)c2cc(NC(=O)Nc3ccccc3)ccc2O[C@H]1CN(C)C(=O)Nc1ccc(C(F)(F)F)cc1`, the cytotoxicity call with HSkMC and with HepG2 was “inactive” in each case. Also, the growth inhibition call in the assay on S. aureus RN4220 is “inactive”.
On to `C[C@@H]1CN([C@@H](C)CO)C(=O)c2cccc(NC(=O)c3cnccn3)c2O[C@@H]1CN(C)C(=O)Nc1ccc2c(c1)OCO2`, for which the cytotoxicity call with HSkMC and in the assay with HepG2 was “inactive” in each case. Besides, the growth inhibition call in the assay on S. aureus RN4220 is “inactive”.
For the compound `CCOC(=O)COc1ccc2c(=O)cc(-c3ccccc3)oc2c1`, the cytotoxicity call with HSkMC was “inactive”. Moreover, the cytotoxicity call in the assay with HepG2 is “active”. In addition, in the assay with S. aureus RN4220, the growth inhibition call was “inactive”.
With `CC(=O)N[C@@H](CC(C)C)C(=O)O`, the cytotoxicity call with HSkMC and in the assay with HepG2 was “inactive” throughout. The growth inhibition call with S. aureus RN4220 is “inactive”.
With `C[C@@H]1CN([C@@H](C)CO)C(=O)Cc2cc(NC(=O)Cn3cnnn3)ccc2O[C@H]1CN(C)Cc1ccc(C(F)(F)F)cc1`, the cytotoxicity call with HSkMC and with HepG2 was “inactive” throughout. In the assay with S. aureus RN4220, the growth inhibition call is “inactive”.
For the compound `C[C@@H]1CN([C@H](C)CO)C(=O)Cc2cc(NS(C)(=O)=O)ccc2O[C@H]1CN(C)C(=O)Nc1ccc(F)cc1`, the cytotoxicity call in the assay on HSkMC (human skeletal muscle cells) and in the assay with HepG2 was “inactive” throughout. The growth inhibition call in the assay with S. aureus RN4220 was “inactive”.

Source of the values: the antibiotic and cytotoxicity screens of Wong et al. (2023).
